Test results as given in ChEMBL document CHEMBL5606460, “ASAP - DENV-2 NS2B-NS3 protease fluorescence single point” (2024).
The whole screen tested about 2,000 compounds, of which about 110 (5.5%) showed an effect of 50% or more. The list shows a part of the results.

Target: Genome polyprotein (dengue virus type 2) (UniProt P29990)
[1] = Thailand/16681/1984, Concentration 25.0 uM, Number of replicates 1.0

Cc1cnccc1NC(=O)c1csc(-c2ccco2)n1
inhibition (Thailand/16681/1984, Concentration 49.5 uM, Number of replicates 2.0, Standard deviation 3.467417096600098 %): -3.43%
inhibition (Thailand/16681/1984, Concentration 99.01 uM, Number of replicates 2.0, Standard deviation 2.201182046579419 %): -3.24%
inhibition (Thailand/16681/1984, Concentration 198.0 uM, Number of replicates 2.0, Standard deviation 2.9719336141272215 %): -2.24%

O=C(Cn1ccc2cccnc21)N1CC[C@H](c2c[nH]c3ccccc23)C1
inhibition (Thailand/16681/1984, Concentration 49.5 uM, Number of replicates 2.0, Standard deviation 1.3049859583596561 %): 4.28%
inhibition (Thailand/16681/1984, Concentration 99.01 uM, Number of replicates 2.0, Standard deviation 0.892571122073038 %): 8.2%
inhibition (Thailand/16681/1984, Concentration 198.0 uM, Number of replicates 2.0, Standard deviation 0.11434810893272447 %): 16.1%

NCc1cccc(NC(=O)[C@@H](NC(=O)OCc2ccccc2)c2ccccc2)c1
inhibition (Thailand/16681/1984, Concentration 49.5 uM, Number of replicates 2.0, Standard deviation 1.0300513707602847 %): 0.869%
inhibition (Thailand/16681/1984, Concentration 99.01 uM, Number of replicates 2.0, Standard deviation 0.7240873671299501 %): 0.819%
inhibition (Thailand/16681/1984, Concentration 198.0 uM, Number of replicates 2.0, Standard deviation 0.6193503939215136 %): 0.644%

O=C(NCCc1nnc[nH]1)[C@@]1(c2ccc(F)cc2)CCCNC1
inhibition (Thailand/16681/1984, Concentration 50.0 uM, Number of replicates 2.0, Standard deviation 0.3761047678487402 %): -0.092%
inhibition (Thailand/16681/1984, Concentration 100.0 uM, Number of replicates 2.0, Standard deviation 0.4194597979190475 %): 0.419%
inhibition (Thailand/16681/1984, Concentration 200.0 uM, Number of replicates 2.0, Standard deviation 0.44222117184721943 %): 1.04%

Cc1cccc(C)c1NC(=O)CN1CCN(C(=O)C2CCN(c3ccc(C=O)cc3)CC2)CC1
inhibition [1]: 12.2%

C[C@@H](CCNC(=O)C1CCN(c2ccc(C=O)cc2)CC1)N1CCOCC1
inhibition [1]: 12.8%

CC1(C)[C@H]2CC[C@]1(C)[C@H](NC(=O)C1CCN(c3ccc(C=O)cc3)CC1)C2
inhibition [1]: 3.74%

CNC(=O)c1nc(C)c(C)c(N2CC[C@@H](NC(=O)[C@H]3CCCc4[nH]cnc43)C2)n1
inhibition (Thailand/16681/1984, Concentration 49.5 uM, Number of replicates 2.0, Standard deviation 0.14110347627647063 %): 0.754%
inhibition (Thailand/16681/1984, Concentration 99.01 uM, Number of replicates 2.0, Standard deviation 0.06819124066710994 %): 1.32%
inhibition (Thailand/16681/1984, Concentration 198.0 uM, Number of replicates 2.0, Standard deviation 0.04668471539636497 %): 2.04%

O=Cc1ccc(N2CCC(C(=O)N3CCN(CC4CCCCC4)CC3)CC2)cc1
inhibition [1]: 11.7%

Cn1cc(NC(=O)c2ccccc2C(F)(F)F)c(-c2ccc3cn[nH]c3c2)n1
inhibition (Thailand/16681/1984, Concentration 49.5 uM, Number of replicates 2.0, Standard deviation 3.8036353619602954 %): -3.54%
inhibition (Thailand/16681/1984, Concentration 99.01 uM, Number of replicates 2.0, Standard deviation 3.5509755418496134 %): -2.83%
inhibition (Thailand/16681/1984, Concentration 198.0 uM, Number of replicates 2.0, Standard deviation 2.7355953191530653 %): -4.39%

O=Cc1ccc(N2CCC(C(=O)N3CCN(c4ccc(O)cc4)CC3)CC2)cc1
inhibition [1]: 25.7%

Cn1cc(NS(=O)(=O)c2ccc(Oc3ccccc3)cc2)cn1
inhibition (Thailand/16681/1984, Concentration 49.5 uM, Number of replicates 2.0, Standard deviation 2.601473805507212 %): -1.3%
inhibition (Thailand/16681/1984, Concentration 99.01 uM, Number of replicates 2.0, Standard deviation 1.6601793249753374 %): 0.407%
inhibition (Thailand/16681/1984, Concentration 198.0 uM, Number of replicates 2.0, Standard deviation 1.3349353403241033 %): 2.24%

Cc1cc(CO)c2cccc(C[C@H](NC(=O)c3nc(N)n[nH]3)C(=O)O)c2n1
inhibition (Thailand/16681/1984, Concentration 49.95 uM, Number of replicates 2.0, Standard deviation 0.562102066171363 %): 7.82%
inhibition (Thailand/16681/1984, Concentration 99.9 uM, Number of replicates 2.0, Standard deviation 0.9519253487191718 %): 21.3%

CCn1ccnc(N2CC[C@@H](CC(N)=O)C2)c1=O
inhibition (Thailand/16681/1984, Concentration 49.5 uM, Number of replicates 2.0, Standard deviation 0.1964302765194489 %): 4.92%
inhibition (Thailand/16681/1984, Concentration 99.01 uM, Number of replicates 2.0, Standard deviation 0.0724696515531478 %): 13.3%
inhibition (Thailand/16681/1984, Concentration 198.0 uM, Number of replicates 2.0, Standard deviation 0.24982898488359928 %): 28.6%

Cc1cc(S(=O)(=O)NCCNC(=O)c2ccc(O)c(NC(=O)c3ccncc3F)c2C)c(C)s1
inhibition (Thailand/16681/1984, Concentration 49.5 uM, Number of replicates 2.0, Standard deviation 0.0696651159595359 %): -1.95%
inhibition (Thailand/16681/1984, Concentration 99.01 uM, Number of replicates 2.0, Standard deviation 0.12517951182523615 %): -1.5%
inhibition (Thailand/16681/1984, Concentration 198.0 uM, Number of replicates 2.0, Standard deviation 0.5034395957498385 %): 0.045%

O=Cc1ccc(N2CCC(C(=O)NCc3ccc(F)cc3C(F)(F)F)CC2)cc1
inhibition [1]: 14.8%

COc1cccc(-c2ccccc2C(=O)Nc2cnn(C)c2)c1F
inhibition (Thailand/16681/1984, Concentration 49.5 uM, Number of replicates 2.0, Standard deviation 1.8718256674784317 %): -4.15%
inhibition (Thailand/16681/1984, Concentration 99.01 uM, Number of replicates 2.0, Standard deviation 0.7301858896689309 %): -2.94%
inhibition (Thailand/16681/1984, Concentration 198.0 uM, Number of replicates 2.0, Standard deviation 2.4339528531715073 %): -3.18%

CC(C)(CO)NC(=O)c1cc(Cl)cc(NCc2cccc(Oc3ccccn3)c2)c1
inhibition (Thailand/16681/1984, Concentration 49.5 uM, Number of replicates 2.0, Standard deviation 0.9055793253974403 %): -9.2%

C[C@]12CC3CC(NC(=O)C4CCN(c5ccc(C=O)cc5)CC4)(C1)C[C@](C)(C3)C2
inhibition [1]: 15.8%

CNC(=O)[C@@H](C)CNS(=O)(=O)c1ccc(Oc2ccccc2Cl)cc1
inhibition (Thailand/16681/1984, Concentration 49.5 uM, Number of replicates 2.0, Standard deviation 0.8337442367954725 %): -0.747%
inhibition (Thailand/16681/1984, Concentration 99.01 uM, Number of replicates 2.0, Standard deviation 0.25212885411314173 %): 0.957%
inhibition (Thailand/16681/1984, Concentration 198.0 uM, Number of replicates 2.0, Standard deviation 0.23111814436827896 %): 2.51%
